Measured values as given in the supplement of paper PMC9446081.
Out of some 39,000 compounds screened, about 220 (0.56%) showed activity. This is one part of the list.
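Note: static incubation at 37 °C against the wild-type strain, values averaged over two biological replicates.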

The compounds below were run on Escherichia coli K-12 BW25113 (assay: relative growth (OD600 normalised to plate interquartile mean) (fraction); higher = less growth inhibition, active = 0.2 or less). Conditions: 50 µM; LB; incubation time: overnight (16-24 h).
`CCN(CC)c1ccc(N2CC=C[C@@]34O[C@@H]5C=CCOC(=O)[C@@H]5[C@H]3C(=O)N(CCCCCO)[C@@H]4C2=O)cc1` was tested, and the relative growth was inactive: 0.97. For `C[C@H](CO)N1C[C@H](C)[C@@H](CN(C)S(C)(=O)=O)OCc2cn(nn2)CCCC1=O`, the relative growth was inactive: 1.03. For `C[C@@H]1CCCCO[C@@H](CN(C)S(C)(=O)=O)[C@@H](C)CN([C@@H](C)CO)C(=O)c2cc(NS(C)(=O)=O)ccc2O1`, the relative growth was inactive: 0.994. In the case of `CCOc1ccccc1C(N)=O`, the relative growth is reported as inactive: 0.926. `CC(=O)N1[C@H](CNC(=O)CN2CCOCC2)[C@H](c2ccccc2)[C@@H]1CO` was tested, and the relative growth was inactive: 0.963. In the case of `C[C@@H](O)C#Cc1cnc2c(c1)C(=O)N([C@@H](C)CO)C[C@H](C)[C@H](CN(C)Cc1cncnc1)O2`, the relative growth is reported as inactive: 0.984. In the case of `C[C@H]1CN([C@@H](C)CO)C(=O)c2cc(NS(=O)(=O)c3ccccc3)ccc2O[C@@H]1CN(C)Cc1ccncc1`, the relative growth is reported as inactive: 1.01. In the case of `Cc1noc(C)c1S(=O)(=O)Nc1ccc2c(c1)C(=O)N([C@H](C)CO)C[C@H](C)[C@H](CN(C)S(C)(=O)=O)O2`, the relative growth is reported as inactive: 0.994. `COc1ccc(NC(=O)Nc2ccc3c(c2)C(=O)N([C@@H](C)CO)C[C@H](C)[C@@H](CN(C)S(=O)(=O)c2ccc(Cl)cc2)OCCCC[C@@H](C)O3)cc1` was tested, and the relative growth was inactive: 1.02. In the case of `Cc1noc(C)c1NC(=O)N(C)C[C@@H]1Oc2ncc(C#CCN(C)C)cc2C(=O)N([C@@H](C)CO)C[C@@H]1C`, the relative growth is reported as inactive: 0.987. For `C[C@@H]1CN([C@H](C)CO)C(=O)c2cc(NS(=O)(=O)c3cccs3)ccc2O[C@H]1CN(C)S(=O)(=O)c1ccc(F)cc1`, the relative growth was inactive: 0.961. For `C[C@@H]1CCCCO[C@H](CN(C)C(=O)Nc2ccc(C(F)(F)F)cc2)[C@@H](C)CN([C@H](C)CO)C(=O)c2cc(NS(=O)(=O)c3cn(C)cn3)ccc2O1`, the relative growth was inactive: 0.977. In the case of `COCC(=O)N1C[C@@H](C)[C@@H](OC)CN(C)C(=O)c2cc(NC(=O)c3ccc(OC)cc3)ccc2OC[C@@H]1C`, the relative growth is reported as inactive: 1.02. With `COc1ccc(C#Cc2ccc3c(c2)O[C@H](CN(C)C(C)=O)[C@H](C)CN([C@H](C)CO)S3(=O)=O)cc1` the relative growth was inactive: 1.04. With `CC(C)NC(=O)c1cccc2cccc(Sc3ccccc3)c12` the relative growth was inactive: 1.04. `CCC(=O)Nc1ccc2c(c1)C(=O)N(C)C[C@H](OC)[C@@H](C)CN(C(=O)CN1CCOCC1)[C@@H](C)CO2` was tested, and the relative growth was inactive: 1. For `CN(C)c1ccc2nc3ccc(N(C)C)cc3[s+]c2c1.O.[Cl-]`, the relative growth was inactive: 0.934. In the case of `CCS(=O)(=O)N1CC[C@]2(CC1)CN([C@H](CO)c1[nH]c3cc(ccc3c12)OC)C(=O)Cc1ccccn1`, the relative growth is reported as inactive: 0.993. `C[C@H]1CN([C@@H](C)CO)C(=O)c2cccc(NC(=O)NC3CCCCC3)c2O[C@H]1CN(C)C(=O)Nc1ccc(C(F)(F)F)cc1` was tested, and the relative growth was inactive: 0.828. `C[C@H]1CN([C@@H](C)CO)C(=O)c2cc(C#CCN(C)C)cnc2O[C@@H]1CN(C)Cc1cccc(C(=O)O)c1` was tested, and the relative growth was inactive: 1.01. For `C[C@H](CO)N1C[C@H](C)[C@@H](CN(C)CC2CC2)OCCCC[C@H](C)Oc2ccc(NC(=O)Nc3ccc4c(c3)OCO4)cc2C1=O`, the relative growth was inactive: 0.99. With `O=C(C[C@@H]1CC[C@@H](NC(=O)CN2CCOCC2)[C@H](CO)O1)NCCc1ccncc1` the relative growth was inactive: 1. With `C[C@H]1CN([C@@H](C)CO)C(=O)c2cc(-c3cccc(C(=O)N(C)C)c3)cnc2O[C@H]1CN(C)S(=O)(=O)c1cccc(F)c1` the relative growth was inactive: 1.01. With `Cc1noc(C)c1NC(=O)N[C@H]1CC[C@@H](CC(=O)NCCCN(C)C)O[C@@H]1CO` the relative growth was inactive: 1.05. With `CCc1nc2ccc(C(=O)Nc3cc(-c4ccccc4)ccc3OC)cn2c1N(C)CCCc1ccccc1` the relative growth was inactive: 1.03. For `C[C@@H]1CN([C@H](C)CO)C(=O)c2cc(NS(=O)(=O)c3ccc(F)cc3)ccc2O[C@@H]1CN(C)C(=O)Nc1ccc(C(F)(F)F)cc1`, the relative growth was inactive: 0.964. In the case of `CC(C)NC(=O)N(C)C[C@@H]1Oc2ccc(NC(=O)Nc3ccc4c(c3)OCO4)cc2C(=O)N([C@H](C)CO)C[C@H]1C`, the relative growth is reported as inactive: 0.985. With `CO[C@H]1CN(C)C(=O)c2ccc(NS(C)(=O)=O)cc2OC[C@H](C)N(C(=O)c2ccc3c(c2)OCO3)C[C@@H]1C` the relative growth was inactive: 1. In the case of `Cc1noc(C)c1NC(=O)N(C)C[C@H]1Oc2c(NS(C)(=O)=O)cccc2C(=O)N([C@@H](C)CO)C[C@H]1C`, the relative growth is reported as inactive: 1.03. For `COc1ccc(NC(=O)Nc2ccc3c(c2)C(=O)N([C@@H](C)CO)C[C@@H](C)[C@@H](CN(C)C(=O)Nc2c(C)noc2C)OCCCC[C@@H](C)O3)cc1`, the relative growth was inactive: 1. `C[C@H]1CN([C@@H](C)CO)C(=O)c2cccc(NC(=O)C3CCOCC3)c2O[C@H]1CN(C)Cc1ccc(Oc2ccccc2)cc1` was tested, and the relative growth was inactive: 1.03. In the case of `COc1c(C)cnc2c1c(=O)n(CC(N)=O)c(=O)n2C`, the relative growth is reported as inactive: 0.999. `C[C@@H]1CN([C@@H](C)CO)C(=O)c2cccc(NC(=O)Nc3ccc(F)cc3)c2O[C@@H]1CN(C)Cc1ccc(C(=O)Nc2ccccc2N)cc1` was tested, and the relative growth was inactive: 1.01. `COc1ccc(NC(=O)Nc2ccc3c(c2)C(=O)N([C@@H](C)CO)C[C@@H](C)[C@@H](CN(C)C(=O)Nc2cccc4ccccc24)OCCCC[C@@H](C)O3)cc1` was tested, and the relative growth was inactive: 1.05. For `C[C@H](CO)N1C[C@H](C)[C@H](CN(C)S(C)(=O)=O)Oc2c(NS(=O)(=O)c3ccc(F)cc3)cccc2C1=O`, the relative growth was inactive: 1.01. With `CNCc1cc2ccccc2s1` the relative growth was inactive: 0.996. For `C[C@H]1CCCCO[C@H](CN(C)Cc2ccc(Cl)c(Cl)c2)[C@@H](C)CN([C@@H](C)CO)C(=O)c2cc(NC(=O)Nc3ccc4c(c3)OCO4)ccc2O1`, the relative growth was inactive: 1.03. In the case of `COC(=O)/C=C/c1ccc(C(=O)NCC(=O)N[C@@H](CCC(=O)OC)C(=O)N[C@@H](CC(C)C)C(N)=O)cc1`, the relative growth is reported as inactive: 0.994. In the case of `C[C@@H]1CCCCO[C@H](CN(C)S(=O)(=O)c2ccc(F)cc2)[C@@H](C)CN([C@H](C)CO)C(=O)c2cc(NC(=O)Nc3ccc(F)cc3)ccc2O1`, the relative growth is reported as inactive: 0.933.
